Source: PubChem BioAssay AID360 (National Center for Advancing Translational Sciences (NCATS), 2006)
Screen size: about 48,000 compounds; about 550 (1.1%) were called active. Not shown: some 4% with an inconclusive outcome. Cut-off read from the data, not from the text of the source: active = potency below about 15 µM; inconclusive = mostly about 16 µM to 33 µM; inactive = weaker than that. The list shows a part of the results.
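Note: the screen sought inhibitors.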
Potency is the fitted concentration of half-maximal effect.

Each compound was assayed against Lysosomal acid glucosylceramidase (Homo sapiens) (UniProt P04062) (assay: Glucocerebrosidase). Conditions: purified enzyme, resorufin glucoside fluorescence (screen aimed at inhibitors), 20 min.
Chain of UniProt P04062 (P04062 whole entry, looked up): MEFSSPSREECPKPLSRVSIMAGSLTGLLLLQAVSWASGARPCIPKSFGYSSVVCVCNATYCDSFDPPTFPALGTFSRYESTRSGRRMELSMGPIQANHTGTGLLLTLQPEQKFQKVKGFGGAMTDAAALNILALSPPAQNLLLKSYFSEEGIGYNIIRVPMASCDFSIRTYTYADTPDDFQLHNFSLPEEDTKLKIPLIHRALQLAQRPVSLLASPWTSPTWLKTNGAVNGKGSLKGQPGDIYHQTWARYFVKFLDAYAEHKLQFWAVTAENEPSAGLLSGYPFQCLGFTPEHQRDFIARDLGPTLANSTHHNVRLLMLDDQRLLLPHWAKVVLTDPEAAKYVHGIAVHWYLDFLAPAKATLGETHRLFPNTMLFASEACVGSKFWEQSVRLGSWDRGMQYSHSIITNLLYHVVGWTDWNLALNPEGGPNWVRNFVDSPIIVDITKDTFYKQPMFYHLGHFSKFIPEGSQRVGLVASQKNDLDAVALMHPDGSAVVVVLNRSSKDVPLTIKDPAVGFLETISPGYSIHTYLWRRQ
In short: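 Normal human glucocerebrosidase (0.2 nM final) was assayed with resorufin β-D-glucopyranoside (30 uM final) in 50mM citric acid/KH2PO4, 10mM sodium taurocholate, 0.01% tween-20, pH 5.9. Compounds were titrated; fluorescence (Ex 548, Em 600) read after 20 min at RT.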
`CCCN1CN(Cc2ccco2)c2nc3ccccc3n2C1` was tested, and the Potency was inactive: > 76.9 µM.
With `COCCNC(=O)Cn1nc(C(F)(F)F)c(Cl)c1C` the Potency was inactive: > 76.9 µM.
`CCOC(=O)N1CCN(C2=CC(=O)OC23CCCCC3)CC1` was tested, and the Potency was inactive: > 76.9 µM.
`CCn1c(SCC(=O)Nc2ccc(C(=O)OC)cc2)nnc1-c1cccs1` was tested, and the Potency was inactive: > 76.9 µM.
`O=C(NCCN1CCN(Cc2ccccc2)CC1)C1CC(=O)N(C2CCCC2)C1` (stereo unspecified) was tested, and the Potency was inactive: > 76.9 µM.
In the case of `CSCCC(NC(=O)c1occc1C)C(=O)O` (stereo unspecified), the Potency is reported as inactive: > 76.9 µM.
`COc1cccc(-c2nnc(SCc3ccc(C#N)cc3)n2Cc2ccco2)c1` was tested, and the Potency was inactive: > 76.9 µM.
In the case of `COc1ccccc1OCc1ccc(C(=O)Nc2ccncc2)o1`, the Potency is reported as active: 13.2 µM.
`O=C(c1ccc2c(c1)OCCO2)N(c1ccccn1)C1CCCCC1` was tested, and the Potency was inactive: > 76.9 µM.
For `CCN(CC)CCCNC(=O)N[C@@H](Cc1ccccc1)C(=O)O`, the Potency was inactive: > 76.9 µM.
For `CCOC(=O)c1ccc(CSc2nnc(N)s2)cc1`, the Potency was inactive: > 76.9 µM.
For `COc1cccc(NC(=O)NC2(C(F)(F)F)Oc3ccccc3O2)c1`, the Potency was inactive: > 76.9 µM.
For `O=C(NCC(=O)N(CC1CCCO1)C(C(=O)NC1CCCC1)c1ccc(F)cc1)c1ccco1` (stereo unspecified), the Potency was inactive: > 76.9 µM.
With `O=C(c1ccc(F)cc1F)N(Cc1ccccn1)Cc1ccco1` the Potency was inactive: > 76.9 µM.
`O=C(CN1C(=O)CSC1=O)Nc1ccccc1N1CCOCC1` was tested, and the Potency was inactive: > 76.9 µM.
For `CC(=O)c1c(C)[nH]c(C(=O)Nc2ccc3c(c2)OCCO3)c1C`, the Potency was inactive: > 76.9 µM.
In the case of `CCN(Cc1cc2ccccc2[nH]c1=O)S(=O)(=O)c1ccccc1`, the Potency is reported as inactive: > 76.9 µM.
`CC(C)C(c1nnnn1CC1CCCO1)N1CCN(Cc2ccc3c(c2)OCO3)CC1` (stereo unspecified) was tested, and the Potency was inactive: > 76.9 µM.
`Cc1ccc(N2CCN(CCc3nc4cc(NS(C)(=O)=O)ccc4n3C)CC2)cc1` was tested, and the Potency was inactive: > 76.9 µM.
`COc1ccc(CCNC(=O)CCSc2nc(-c3ccco3)cc(C(F)(F)F)n2)cc1OC` was tested, and the Potency was inactive: > 76.9 µM.
`Cc1ccc(NC(=O)CS(=O)CC(=O)NCC2CCCO2)cc1` (stereo unspecified) was tested, and the Potency was inactive: > 76.9 µM.
`CCc1ccc2c(CN3CCN(S(=O)(=O)c4ccc5c(c4)OCCO5)CC3)cc(=O)oc2c1` was tested, and the Potency was inactive: > 76.9 µM.
With `CCOC(=O)c1ccc(NC(=O)CN2CCN(CCN=CC3=C(O)CC(C)(C)CC3=O)CC2)cc1` the Potency was inactive: > 76.9 µM.
For `O=C(CCn1c(=O)oc2ccccc21)NC1=NCCS1`, the Potency was inactive: > 76.9 µM.
`Cn1c(=O)cc(SCC(=O)NCC2COc3ccccc3O2)c2ccccc21` (stereo unspecified) was tested, and the Potency was inactive: > 76.9 µM.
For `Cc1cccc(-n2c(SCC(N)=O)nnc2-c2ccccn2)c1C`, the Potency was inactive: > 76.9 µM.
In the case of `CCn1c(=N)c(C(N)=O)cc2c(=O)n3cccc(C)c3nc21`, the Potency is reported as inactive: > 76.9 µM.
In the case of `c1ccc(COc2ccc(OCCCn3cncn3)cc2)cc1`, the Potency is reported as inactive: > 76.9 µM.
In the case of `CCCN=C(N)/C(C(=O)OCC)=C(\O)c1ccc(OC)cc1`, the Potency is reported as inactive: > 76.9 µM.
For `COc1ccc(-c2noc(-c3ccc(Br)o3)n2)cc1OC`, the Potency was inactive: > 76.9 µM.
With `CCCCN(C(=O)c1cc(OC)c(OC)c(OC)c1)C1=CC2CCC(C1)N2C` (stereo unspecified) the Potency was inactive: > 76.9 µM.
In the case of `Cc1onc(-c2ccccc2)c1C(=O)Nc1nnc(-c2ccncc2)s1`, the Potency is reported as inactive: > 76.9 µM.
In the case of `CN1CCN(C2=C(Cl)C(=O)N(Cc3ccccc3)C2=O)CC1`, the Potency is reported as inactive: > 76.9 µM.
In the case of `Nc1c(C(=O)NCc2ccco2)sc2nc3c(cc12)C(=O)CCC3`, the Potency is reported as inactive: > 76.9 µM.
In the case of `Cc1ccc(C)c(NS(=O)(=O)c2c(C)nn(C)c2C)c1`, the Potency is reported as inactive: > 76.9 µM.
For `COc1ccccc1OCC(=O)NCc1cccs1`, the Potency was inactive: > 76.9 µM.
`COc1cccc(NC(=O)CNC(=O)c2ccccc2)c1` was tested, and the Potency was inactive: > 76.9 µM.
With `COc1ccc(S(=O)(=O)N2CCCCC2C(=O)O)cc1OC` (stereo unspecified) the Potency was inactive: > 76.9 µM.
In the case of `CCn1nnnc1SCC(=O)Nc1cccc(NC(C)=O)c1`, the Potency is reported as inactive: > 76.9 µM.
In the case of `Cc1ccc(Cn2c(N3CCCCCC3)nc3c2c(=O)[nH]c(=O)n3C)cc1`, the Potency is reported as inactive: > 76.9 µM.
In the case of `CCc1ccccc1NC(=O)CSc1nc2c(c(-c3ccco3)c1C#N)CCCC2`, the Potency is reported as inactive: > 76.9 µM.
In the case of `CCCN1C(=O)C(NC(C)=O)c2cc(OC)ccc21` (stereo unspecified), the Potency is reported as inactive: > 76.9 µM.
In the case of `Cc1cccc(CCNC(=O)C2CCN(S(=O)(=O)c3c(C)nn(C)c3C)CC2)c1`, the Potency is reported as inactive: > 76.9 µM.
With `COc1cccc(CN(C)C(=O)c2ccc(S(=O)(=O)N3CCCC3)cc2)c1OC` the Potency was inactive: > 76.9 µM.
With `FC(F)Oc1ccccc1C1CC(c2ccc(Br)s2)Nc2ncnn21` (stereo unspecified) the Potency was inactive: > 76.9 µM.
In the case of `COc1cc(CN2CCC(C(=O)NC3CCCC3)CC2)ccc1O`, the Potency is reported as inactive: > 76.9 µM.
In the case of `COc1ccc(/C(O)=C2/C(=O)C(=O)N(Cc3cccnc3)C2c2ccncc2)cc1F` (stereo unspecified), the Potency is reported as inactive: > 76.9 µM.
With `Cc1cc(Nc2ccccc2)n(CCOC(=O)COc2ccccc2)n1` the Potency was inactive: > 76.9 µM.
In the case of `COc1cccc(-c2cc(C(F)(F)F)nc(-n3cncn3)n2)c1`, the Potency is reported as inactive: > 76.9 µM.
For `CCOc1ccc(N(CC(=O)NC2CCCC2)C(=O)CCC(=O)Nc2ccccn2)cc1`, the Potency was inactive: > 76.9 µM.
In the case of `O=C1c2ccccc2-c2c1nc1c([n+]2[O-])CCCC1`, the Potency is reported as inactive: > 76.9 µM.
In the case of `COc1ccc(/C=N/n2c(N)nc3ccccc32)cc1OC`, the Potency is reported as inactive: > 76.9 µM.
In the case of `CN(CCC#N)C(=O)CSc1ncnc2sc(-c3ccccc3)cc12`, the Potency is reported as inactive: > 76.9 µM.
`Cc1[nH]c2c(C)cccc2c(=O)c1Br` was tested, and the Potency was inactive: > 76.9 µM.
With `CN=Cc1sc2ccccc2c1O` the Potency was inactive: > 76.9 µM.
With `Cc1ccc(-n2c(Cc3cccs3)nnc2SCC(=O)Nc2ccc(S(N)(=O)=O)cc2)cc1` the Potency was “inactive”.
For `CC(C)NC(=O)c1ccc(-c2ccccc2C(F)(F)F)o1`, the Potency was inactive: > 76.9 µM.
`COc1cccc(C(=O)Nc2ccc(S(=O)(=O)NCc3ccco3)cc2)c1` was tested, and the Potency was inactive: > 76.9 µM.
For `CC(C)(C)NC(=O)C1N(c2cccnc2)C(=O)C2C(C(=O)Nc3ccccc3)C3(C)C=CC21O3` (stereo unspecified), the Potency was inactive: > 76.9 µM.
`CN(C)S(=O)(=O)c1ccc(C(=O)OCC(=O)c2ccc(OC(F)F)cc2OC(F)F)cc1` was tested, and the Potency was inactive: > 76.9 µM.
In the case of `COc1ccc(-c2nc3n(c(=O)c2C#N)CCCS3)cc1`, the Potency is reported as inactive: > 76.9 µM.
For `O=C1CN(C(=O)c2cccs2)c2ccccc2N1`, the Potency was inactive: > 76.9 µM.
In the case of `CC(=O)Nc1cc2c(=O)n(Cc3ccccc3)c(C)nc2cc1N1CCOCC1`, the Potency is reported as inactive: > 76.9 µM.
For `Cc1cccc(-n2c(SCC(=O)NCc3ccco3)nnc2-c2ccco2)c1`, the Potency was inactive: > 76.9 µM.
`CCCCN(CCCNC(=O)C1CCN(S(=O)(=O)N2CCOCC2)CC1)Cc1ccccc1` was tested, and the Potency was inactive: > 76.9 µM.
For `C#CCn1c(=NC(=O)CSCC(=O)N2CCOCC2)sc2ccccc21`, the Potency was inactive: > 76.9 µM.
In the case of `CCOC(=O)CN1C(=O)COc2ccc(C(C)(C)C)cc21`, the Potency is reported as inactive: > 76.9 µM.
For `CCn1cc(Br)c(-c2nc3ccccc3c(=O)n2N)n1`, the Potency was inactive: > 76.9 µM.
For `O=C(COc1ccccc1)Nc1cccc2nsnc12`, the Potency was inactive: > 76.9 µM.
For `CS/C(=N\S(=O)(=O)c1ccc(N)cc1)NS(=O)(=O)c1cccs1`, the Potency was inactive: > 76.9 µM.
In the case of `O=c1cc(-c2ccccc2)[nH]n1-c1nc2ccccc2[nH]1`, the Potency is reported as inactive: > 76.9 µM.
In the case of `COC(=O)c1cc(OC)c(OC)cc1NC(=O)c1ccoc1C`, the Potency is reported as inactive: > 76.9 µM.
`COc1ccccc1-n1nnnc1S(=O)(=O)Cc1ccc(Cl)cc1` was tested, and the Potency was inactive: > 76.9 µM.
With `O=C(CN1C(=O)COc2ccccc21)c1cccc(Cl)c1` the Potency was inactive: > 76.9 µM.
With `COc1cccc(C2C(C(=O)OC(C)C)=C(C)Nc3ncnn32)c1` (stereo unspecified) the Potency was inactive: > 76.9 µM.
With `COCC(C)NC(=O)C1CC(=O)N(c2ccc(C)cc2)C1` (stereo unspecified) the Potency was inactive: > 76.9 µM.
With `O=C(NCCn1cccc1)c1cccc2ccccc12` the Potency was inactive: > 76.9 µM.
In the case of `Cn1c(=O)cc(SCC(=O)NCCCN2CCN(c3ccc(F)cc3)CC2)c2ccccc21`, the Potency is reported as inactive: > 76.9 µM.
For `Cc1ccc(S(=O)(=O)NCCC(=O)N2CCCCC2)cc1`, the Potency was inactive: > 76.9 µM.
For `CCCCN(C)C(=O)c1coc(=O)c2ccccc12`, the Potency was inactive: > 76.9 µM.
For `CCCc1cc(=O)[nH]c(SCC(=O)NC(=O)OCC)n1`, the Potency was inactive: > 76.9 µM.
In the case of `COc1ccc(-c2nn3c(-c4ccc(F)cc4)nnc3s2)cc1`, the Potency is reported as inactive: > 76.9 µM.
In the case of `CC(C)(C)NC(=O)CN(C(=O)c1ccc(CN2CCOCC2)o1)c1ccc2c(c1)OCCO2`, the Potency is reported as inactive: > 76.9 µM.
For `Nc1nc(CSc2nnnn2-c2ccc(F)c(Cl)c2)nc(N2CCOCC2)n1`, the Potency was inactive: > 76.9 µM.
In the case of `Cc1noc(C)c1COC(=O)CCCc1c[nH]c2ccccc12`, the Potency is reported as inactive: > 76.9 µM.
`CCCSc1nc(N)c2c3c(sc2n1)CN(C)CC3` was tested, and the Potency was inactive: > 76.9 µM.
With `OCCN1CN=C(Nc2nc3ccccc3o2)NC1` the Potency was inactive: > 76.9 µM.
For `CCn1c(SCC(=O)c2[nH]c(C)c(C(C)=O)c2C)nnc1-c1cccs1`, the Potency was inactive: > 76.9 µM.
For `COc1ccc(S(=O)(=O)N(C)CC(=O)O)c2ccccc12`, the Potency was inactive: > 76.9 µM.
In the case of `CCOC(=O)c1sc(NC(=O)C2CCCO2)c(C(=O)OC)c1C` (stereo unspecified), the Potency is reported as inactive: > 76.9 µM.
In the case of `C=C(C)CN(CC)c1nc(N)c(C#N)c(CC#N)c1C#N`, the Potency is reported as inactive: > 76.9 µM.
